Source: PubChem BioAssay (NCI)
Several values for one entry are separate records, joined by “and”; a condition that tells them apart may be missing. Identical values can stand only once.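 A five-concentration, 48-hour dose response in 96-well plates underlies each endpoint, interpolated linearly between surrounding concentrations. Here, GI50 denotes the concentration required for 50% inhibition of growth. Definition used: TGI = concentration required for complete inhibition of growth.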 Activity calls are given as the source filed them. Rule as the data show it: active = GI50 below about 0.43 µM; inactive = the rest.

system: NCI-H322M lung; test: NCI tumour cell line growth inhibition, 48 h

| Compound | TGI | GI50 [µM] | outcome |
| --- | --- | --- | --- |
| CC1=C(C(=O)CC(=O)C(=O)Nc2ccc(Cl)cc2C)Sc2ccccc2N1 | > 100 µM |  |  |
| Nc1c(C(=O)Nc2cccc(C(F)(F)F)c2)sc2nc3c(cc12)C(O)CCC3 (centres undefined) | > 100 µM | 24.2 |  |
| Cc1ccc(NC(=O)CC(=O)N2N=C(N(C)c3ccccc3)CC2c2ccccc2)cc1 (centres undefined) | > 100 µM |  |  |
| COc1cc(S(=O)(=O)Nc2nc(-c3ccc(N4C(=O)/C(=C\c5cccs5)N=C4c4ccccc4)cc3)cs2)ccc1Cl | > 100 µM |  |  |
| COc1ccc(-c2cc(=O)c3c(O)cc(O)cc3o2)cc1OC | > 100 µM |  |  |
| CC(=O)N1CCC(Nc2ncc3cc(Oc4ccc(F)cc4F)c(=O)n(C)c3n2)CC1 | > 25 µM | > 25 |  |
| Cc1ccc(C2=Nc3c(N)nc(N)nc3NC(c3cccc(Nc4ccnc5cc(C(F)(F)F)ccc45)c3)C2)cc1 (centres undefined) | 8.99 µM | 2.53 |  |
| Cc1cc(=O)n2nnc3c4ccccc4ccc3n12 | 28.3 µM | 13.5 |  |
| COc1ccc(C2SC(N)=Nc3c2c(C)nn3C(=O)Cc2ccccc2)cc1 (centres undefined) | > 100 µM |  |  |
| O=C1CC2CC(O1)[C@H]1O[C@H]1C2 (some centres undefined) |  |  | inactive |
| O=NN1CCNC1Cc1ccccc1 (centres undefined) | > 100 µM |  |  |
| Cc1ccccc1NC(=O)/C(=N/NC(=O)CC#N)C1C(=O)N(c2ccccc2)N=C1N (centres undefined) | > 100 µM |  |  |
| COc1cc2c(cc1OCCCN1CCN(C)CC1)N=C[C@@H]1CCCN1C2=O | 37.4 µM |  |  |
| Cc1oc2c(C(=O)N/N=C\c3ccc(O)cc3O)c[nH]c2c1C | > 49.4 µM | 0.816 |  |
| C=C=C(Sc1ccccc1)C(C)(C)O | > 100 µM |  |  |
| COc1cc2cnc3c(c2c(OC)c1OC)Cc1cc2c(cc1-3)OCO2 | 49.2 µM | 4.33 |  |
| Nc1ncnc2c1ncn2C1CC(O)C(CO)O1 (centres undefined) | > 100 µM |  |  |
| CCOC(CNc1nn2c(C)nnc2s1)OCC | > 100 µM |  |  |
| NNC(=O)c1ccccc1Nc1nc(-c2cccs2)nc2ccc(Br)cc12 | > 100 µM |  |  |
| CC(=O)Nc1ccc(C2C(C(=O)Nc3ccccc3)=C(C)NC(C)=C2C(=O)Nc2ccccc2)cc1 | > 100 µM |  |  |
| CCCCCCCCCCCC(=O)NCc1ccc(OC(=O)CCCCCCCCCCC)c(OC)c1 | > 100 µM |  |  |
| CC(=O)OC12c3ccccc3C1CCCC21OCCCO1 (centres undefined) | > 100 µM |  |  |
| C=C(C(=O)OC)N1C(=O)CC(C)C1=O (centres undefined) | > 100 µM |  |  |
| COc1cc(C2CC(c3cccc(Nc4ccncc4)c3)=NN2c2ccccc2)cc(OC)c1OC (centres undefined) | 5.4 µM | 2.04 |  |
| CSC1N=CNc2c1sc(=S)n2-c1ccccc1 (centres undefined) | > 100 µM |  |  |

| Compound | TGI | GI50 [µM] | outcome |
| --- | --- | --- | --- |
| COc1ccc2c(c1)[n+](=O)c(C(=O)CC(=O)C(=O)Nc1cccc(Cl)c1C)c(C)n2[O-] | > 100 µM |  |  |
| CC(C)(C)OC(=O)NC(CSCc1ccc(C(=O)c2ccccc2)cc1)C(=O)O (centres undefined) | > 100 µM |  |  |
| Clc1c2ncccc2cc2n[nH]nc12 | > 100 µM |  |  |
| CC(=O)OCC1OC(Nc2ccc3nc(C)n(-c4ccccc4)c(=O)c3c2)C(OC(C)=O)C(OC(C)=O)C1OC(C)=O (centres undefined) | > 50 µM |  |  |
| Clc1ccccc1/C=C/c1ccnc2ccccc12 | 29.7 µM |  |  |
| Clc1ccc(Cn2c(CN3CCCC3)nc3ccccc32)cc1 | > 100 µM | 39.7 |  |
| C=C1C(O)C2C(=C(CCC3CC3)C13CC3)C(=O)C(C)(C)C2O (centres undefined) | > 100 µM | 43.5 |  |
| CCNc1cnc2c(n1)c(=O)n(C)c(=O)n2C | > 100 µM |  |  |
| Cc1nc2cc(-c3nn(C(C)C)c4ncnc(N)c34)ccc2o1 | 1.63 µM | 0.0134 |  |
| O=S(O)CCCCCSSSCCCCCS(=O)O | > 100 µM |  |  |
| c1ccc2c(c1)Oc1cccc3cccc-2c13 | > 100 µM |  |  |
| COC(=O)/C=C\[C@H]1[C@H](C)N1S(=O)(=O)c1ccc(C)cc1 (some centres undefined) | > 100 µM |  |  |
| COC(=O)/C=C1/SC(=Nc2ccc(F)cc2)N(CCc2c[nH]c3ccc(O)cc23)C1=O | > 100 µM | 12.2 |  |
| O=C1/C=C/[C@@H](O)[C@@H]2C[C@@H](O)C[C@H]2/C=C/CCC[C@H](CCc2ccccc2)O1 | 68.7 µM | 0.0268 |  |
| CC1CC2(OC2C)C(=O)OC2CCN(C)C/C=C(/COC(=O)C1(C)O)C2=O (centres undefined) | > 100 µM |  |  |
| Cc1c(C(=O)O)n2c(C)nnc2c2ccccc12 | > 100 µM |  |  |
| CCN(CC)CCN1C(=O)CC2[C@@H]3CCc4cc(OC)ccc4C3CC[C@]2(C)C1=O (some centres undefined) | > 100 µM |  |  |
| Cc1cc(Cl)ccc1OCc1nn2c(CCCCc3nnc4sc(COc5ccc(Cl)cc5C)nn34)nnc2s1 | > 100 µM | 46.4 |  |
| CC(C)N(CCCNC(=O)Nc1ccc(C(C)(C)C)cc1)C[C@H]1O[C@@H](n2ccc3c(N)ncnc32)[C@H](O)[C@@H]1O | > 100 µM | > 100 |  |
| c1ccc(CC(Cc2ccccc2)C2=NCCCN2)cc1 | > 100 µM | > 100 |  |
| O=C(OCC1OC(n2cc(C(F)(F)F)c(=O)[nH]c2=O)CC1OC(=O)c1ccc([N+](=O)[O-])cc1)c1ccc([N+](=O)[O-])cc1 (centres undefined) | > 100 µM | > 100 |  |
| CCC1=C(C(C)=O)[C@@H]2CCCCC(C(=O)OC)[C@@H]2C1=O (some centres undefined) | > 100 µM |  |  |
| COc1cc(OC)c(/C=C/c2cc[n+](C)c3ccccc23)c(OC)c1 | 18.3 µM | 3.18 |  |
| O=C1C(c2ccc([N+](=O)[O-])cc2)=C(Cl)C(=O)c2c(O)cccc21 | > 85.2 µM |  |  |
| CCN=c1nc2sc3c(c2c(NC(=S)NCC)s1)CCN(N1CCc2c(sc4nc(=NCC)sc(NC(=S)NCC)c24)C1)C3 | > 100 µM |  |  |

| Compound | TGI | GI50 [µM] | outcome |
| --- | --- | --- | --- |
| CN(C)c1ccc(/C=C2\C[C@H]3[C@@H]4CC=C5C[C@@H](O)CC[C@]5(C)[C@H]4CC[C@]3(C)C2=O)cc1 | 48.9 µM |  |  |
| CCn1c(=O)c2cn[nH]c2n(C)c1=O | > 100 µM |  |  |
| CC1(C)CC[C@]2(C(=O)Nc3ccccn3)CC[C@]3(C)C(=CC[C@@H]4[C@@]5(C)C/C(=C/c6ccncc6)C(=O)C(C)(C)[C@@H]5CC[C@]43C)[C@@H]2C1 | > 100 µM | 5.02 |  |
| O=S1OC[C@H](CCCl)O1 (some centres undefined) | > 100 µM |  |  |
| COc1ccc(/C=C/C(=O)c2sc(NC(=S)NC(=O)c3ccc(Cl)cc3)nc2C)cc1OC | > 100 µM |  |  |
| COc1ccc(/C=C/C2C(C#N)=C(N)OC3=C2C(=O)CCC3)cc1 (centres undefined) | 83.3 µM | 30.5 |  |
| O=[N+]([O-])c1nccn1COCCO | > 100 µM |  |  |
| CCc1n[nH]c(=O)n1O | > 100 µM |  |  |
| CC(C)N(C(C)C)[PH+]1O[PH+](N(C(C)C)C(C)C)O[PH+](N(C(C)C)C(C)C)O[PH+](N(C(C)C)C(C)C)O1.[C-]#[O+].[C-]#[O+].[C-]#[O+].[C-]#[O+].[C-]#[O+].[C-]#[O+].[C-]#[O+].[C-]#[O+].[Mo].[Mo] (centres undefined) | > 100 µM | > 100 |  |
| CN(CCCNC(=O)c1nn(-c2ccccc2)c2c1ccc1ccccc12)CCCNC(=O)c1nn(-c2ccccc2)c2c1ccc1ccccc12 | 3.39 µM |  |  |
| CC1OC(Oc2c(-c3cc(O)c(O)c(O)c3)oc3cc(O)cc(O)c3c2=O)C(O)C(O)C1O (centres undefined) | > 100 µM |  |  |
| COc1cc(/C=C2\C(=O)Nc3ccccc32)cc(OC)c1O | 40.9 µM | 8.3 |  |
| COc1ccc(OC)c(C#N)c1C#N (tested in a mixture with another compound) | > 100 µM |  |  |
| O=[N+]([O-])/C(C(Cl)=C(Cl)Cl)=C(/Br)SCc1ccccc1 | 31.5 µM |  |  |
| COc1ccc(C(=S)N(C)NC(=O)CC(=O)NN(C)C(=S)c2ccc(OC)cc2)cc1 | > 100 µM | > 100 |  |
| Cc1[nH]n(-c2ncc(C(=O)O)c(=O)[nH]2)c(=O)c1CCO | > 100 µM |  |  |
| Cc1cccc2nc3cccc(C(=O)NCCC[N+](C)(CCCNC(=O)c4cccc5nc6cccc(C)c6nc45)Cc4ccc([N+](=O)[O-])n4C)c3nc12 | > 100 µM |  |  |
| Cc1cccc(C)c1NC(=O)C(=O)C(C#N)c1ccccc1 (centres undefined) | > 100 µM |  |  |
| COC(=O)C(=O)C(C(=O)C(=O)Nc1ccc(OC)cc1[N+](=O)[O-])c1nc2ccc([N+](=O)[O-])cc2[nH]c1=O (centres undefined) | > 100 µM |  |  |
| COc1ccc(C(NS(=O)(=O)c2ccc(C)cc2)c2c(C(CBr)OC)c3ccccc3n2S(=O)(=O)c2ccccc2)cc1OC (centres undefined) | > 100 µM |  |  |
| C#CC[C@@H]1C[C@]2(C)[C@H]3CC[C@@H]4[C@H]5C(C(=C)C)CC[C@]5(C(=O)NCCCCN)CC[C@@]4(C)[C@]3(C)CC[C@H]2C(C)(C)[C@H]1OC(C)=O (some centres undefined) | 3.03 µM | 1.65 |  |
| COC1/C(=C\c2ccccc2I)c2ccccc2N1C(C)=O (centres undefined) | 47.1 µM |  |  |
| CCSc1n/c(=C\c2ccc(N(C)C)cc2)c2nnnn12 | > 100 µM |  |  |
| C=C(CCOC)CCC1CCCCC/C1=N\N(C)C (centres undefined) | > 100 µM |  |  |
| C[CH2][Pb]([CH2]C)([CH2]C)[O]C(=O)COC | 6.51 µM | 2.1 |  |

| Compound | TGI | GI50 [µM] | outcome |
| --- | --- | --- | --- |
| OCCN(CCO)c1ccc2c(-c3ccccc3)cc(N(CCO)CCO)nc2n1 | > 100 µM |  |  |
| S=c1[nH]nc(-c2ccccc2)n1/N=C\c1ccc(-c2ccc(Cl)cc2)o1 | > 100 µM |  |  |
| Cc1cnc(-c2ccccc2)o1 | > 100 µM |  |  |
| CNC(=S)/C(C#N)=C(\N)N1CCN(C)CC1 | > 100 µM |  |  |
| CC(=O)Nc1ccc(-c2nnc(SCC(=O)Nc3ccc(Cl)cc3Cl)o2)cc1 | > 100 µM |  |  |
| CN(C)CC1CC/C(=C\c2ccc(Cl)cc2)C1=O (centres undefined) | 33.7 µM |  |  |
| CCOP(=O)(O)CC1OC(CO)C(O)C1O (centres undefined) | > 100 µM |  |  |
| COc1cc(O)c2c(c1)OCC1(Cc3cc(OC)c(OC)cc31)C2=O (centres undefined) | > 100 µM |  |  |
| ONCCCn1cnc2c(NC3CC3)ncnc21 | > 100 µM |  |  |
| C/C(CC(=O)Nc1ccc(Cl)c(Cl)c1)=N/NC(=O)C[N+](C)(C)C | > 100 µM |  |  |
| CCCCC(=O)OC[n+]1ccc(-c2c(COC(=O)NC(C)C)c(COC(=O)NC(C)C)c3n2CCC3)cc1 | > 100 µM |  |  |
| COc1cc(C(=O)N(C)N(C)C)cc(OC)c1OC | > 10 µM |  |  |
| CC(=O)NC1C(OCc2ccccc2)OC(CO)C(O)C1OC(C)C(=O)NC(C)C(=O)N[C@@H](CCC(=O)OCCCNC1c2ccccc2Nc2cccc([N+](=O)[O-])c21)C(N)=O (some centres undefined) | 0.28 µM and 0.0302 µM | 0.0403 |  |
| C=C1CC2(CCOc3ccc(Cl)cc32)OC1=O (centres undefined) | 26 µM |  |  |
| O=C1OCC2=C1C(c1ccc3c(c1)OCO3)c1cc3c(cc1O2)OCO3 (centres undefined) | > 100 µM |  |  |
| Cc1c2c(n(C)c1C)C(=O)C1C(C2=O)C2(C)c3ccccc3C1(C)c1ccccc12 (centres undefined) | > 100 µM |  |  |
| c1ccc(-c2nnc(CCCCCCCCc3nnc(-c4ccccc4)o3)o2)cc1 | > 100 µM |  |  |
| COc1ccc(/C(Cl)=C(\CN(C)C)c2ccc(OC)c(OC)c2)cc1OC | > 100 µM |  |  |
| O=c1ncc(I)cn1C1CC(O)C(CO)O1 (centres undefined) | > 3250 µM | 1490 |  |
| CCOc1ccc(NC(=O)/C(=C\c2ccc(C)cc2)C(C)=O)cc1 | > 100 µM |  |  |
| CCOC(OC1=C(C#N)CCC1)C(C)[Se]c1ccccc1 (centres undefined) | > 100 µM |  |  |
| CC(CCOc1ccc2ccc(=O)oc2c1)C1=CC(=O)C(C)(C)O1 (centres undefined) | 12.1 µM |  |  |
| Nc1nc(N)c2ncn(CCCC(c3ccccc3)P(=O)(O)O)c2n1 (centres undefined) | > 100 µM |  |  |
